In ChEMBL document CHEMBL1201862, “PubChem BioAssay data set” (2004):
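A five-concentration, 48-hour dose response in 96-well plates underlies each endpoint, interpolated linearly between surrounding concentrations. GI50 is the concentration that inhibits growth by half.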 Calls of active or inactive are those of the source. No stated cut-off is given here; in the data, active = GI50 up to about 1.1 µM and inactive = higher.

Each compound was assayed on NCI-H322M (assay: DTP human tumour cell line panel, 48 h).
`O=C1/C(=C/c2ccccc2)CCC/C1=C\c1ccccc1` [2,6-DIBENZYLIDENECYCLOHEXANONE] was tested, and the GI50 was inactive: 17.8 µM. `COC1=CC(=O)C=C(OC)C1=O` [2,6-DIMETHOXYQUINONE] was tested, and the GI50 was inactive: 7.85 µM. In the case of `CC(=O)c1cc2ccccc2oc1=O` [3-ACETYLCOUMARIN], the GI50 is reported as inactive: > 100 µM. In the case of `O=C(/C=C/c1ccc(O)cc1)c1ccc(O)cc1` [4,4'-DIHYDROXYCHALCONE], the GI50 is reported as inactive: 30.2 µM. In the case of `O=c1cc(O)c2ccccc2o1` [4-HYDROXYCOUMARINS], the GI50 is reported as inactive: > 100 µM. In the case of `Nc1ncnc2c1ncn2[C@@H]1O[C@H](C(=O)O)[C@@H](O)[C@H]1O` [5'-CARBOXY ADENOSINE], the GI50 is reported as inactive: > 100 µM. In the case of `O=c1[nH]c(=O)n([C@@H]2O[C@H](CO)[C@@H](O)[C@H]2O)cc1F` [5-FLUOROURIDINE], the GI50 is reported as active: 0.437 µM. With `NC(=O)c1ccc(N)nc1` [6-AMINONICOTINAMIDE] the GI50 was inactive: 28.3 µM. For `O=c1cc(-c2ccccc2)oc2ccc(Cl)cc12` [6-CHLOROFLAVONE], the GI50 was inactive: > 64 µM. For `CC(C)=CC[C@H]1C[C@]2(CC=C(C)C)C(=O)[C@@](CC=C(C)C)(C(=O)C(C(=O)c3ccccc3)=C2O)C1(C)C` [6-EPI-CLUSIANONE], the GI50 was inactive: 5.98 µM. With `CC[C@@]1(O)C(=O)OCc2c1cc1n(c2=O)Cc2cc3c(N)cccc3nc2-1` [9-AMINOCAMPTOTHECIN] the GI50 was active: 0.104 µM. For `C/C=C/C1=C(Cl)C(=O)[C@@H](Cl)[C@@]1(O)C(=O)OC` [(+)-CRYPTOSPORIPSIN], the GI50 was inactive: 15.4 µM. With `CC(C)=CCN1c2ccccc2[C@@]2(CC=C(C)C)CCN(C)[C@@H]12` [(+)-DEBROMOFLUSTRAMINE B] the GI50 was inactive: 40.9 µM. `O=C(NCP(=O)(O)O)c1cccnc1` [(NICOTINAMIDOMETHYL)PHOSPHONIC ACID] was tested, and the GI50 was inactive: > 100 µM. In the case of `CCC(CO)Nc1nc(NCc2ccccc2)c2ncn(C(C)C)c2n1` (stereo not drawn) [(RS)-ROSCOVITINE], the GI50 is reported as inactive: 29 µM. In the case of `CC(=O)Nc1cc([As](=O)(O)O)ccc1O` [ACETARSONE], the GI50 is reported as inactive: > 100 µM. With `CC(=O)Oc1ccccc1` [ACETIC ACID PHENYL ESTER] the GI50 was inactive: > 100 µM. For `CCCCCCC(O)C(O)CCC(O)C1CCC(CCCCC(O)CC2=CC(C)OC2=O)O1` (stereo not drawn) [ACETOGENINS], the GI50 was inactive: 5.2 µM. For `N[C@H](C(=O)O)[C@@H]1CC(Cl)=NO1` [ACIVICIN], the GI50 was inactive: 10 µM. In the case of `CN(C)c1ccc2cc3ccc(N(C)C)cc3nc2c1` [ACRIDINE ORANGE], the GI50 is reported as inactive: 1.19 µM. `Cc1cc2cc3cc(C)c(N)cc3nc2cc1N` [ACRIDINE YELLOW] was tested, and the GI50 was active: 0.543 µM. `CC1(C)S[C@@H]2[C@H](NC(=O)CCC[C@@H](N)C(=O)O)C(=O)N2[C@H]1C(=O)O` [ADICILLIN] was tested, and the GI50 was inactive: > 50 µM. With `C=CCSS/C=C/C[S+]([O-])CC=C` (stereo not drawn) [AJOENE] the GI50 was inactive: > 100 µM.
